Source: PubChem BioAssay AID1671188 (National Center for Advancing Translational Sciences (NCATS), 2021)
Values joined by “and” are separate entries in the source; they are usually repeats but may differ in a detail not shown here. Equal entries are not always repeated. Out of some 100,000 compounds screened, about 250 (0.25%) were called active. The shares of active, inactive and inconclusive entries below differ from those in the screen. Calls follow the shape of the dose curve; as a rule, active = well fitted inhibition curve with a large enough effect; inconclusive = small, poorly fitted or top-dose-only effect; inactive = flat fitted curve, though single readings scatter. Where the call is inconclusive, the potency comes from a doubtful curve fit.

biological target: Alanine aminotransferase 2 (Homo sapiens) (UniProt Q8TD30); assay: Primary qHTS assay for inhibitors of Glutamate pyruvate transaminase 2 (GPT2); conditions: Recombinant GPT2, coupled pyruvate oxidase/HRP Amplex Red fluorescence; activity change, negative = inhibition: at 57.7 µM (top of the series) unless noted; series mostly up to 57.7 µM; also: nearly all actives have a fitted effect of over 60% in size
How it was run: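 GPT2 10ng/uL, a-KG 250uM, L-Ala 2mM, HEPES pH7.5 + 0.0001% Tween; 30 min RT. Then Amplex mix (PO/HRP/ThPP), 30 min RT dark, fluorescence. AOA 50uM used as positive control.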
% is scaled to controls: 0 for no effect and ±100 for the full control effect; potency is read from the fitted curve at half-maximal effect; tags tell the direction and shape of the fitted curve.

Chain of UniProt Q8TD30 (Q8TD30 whole entry, looked up): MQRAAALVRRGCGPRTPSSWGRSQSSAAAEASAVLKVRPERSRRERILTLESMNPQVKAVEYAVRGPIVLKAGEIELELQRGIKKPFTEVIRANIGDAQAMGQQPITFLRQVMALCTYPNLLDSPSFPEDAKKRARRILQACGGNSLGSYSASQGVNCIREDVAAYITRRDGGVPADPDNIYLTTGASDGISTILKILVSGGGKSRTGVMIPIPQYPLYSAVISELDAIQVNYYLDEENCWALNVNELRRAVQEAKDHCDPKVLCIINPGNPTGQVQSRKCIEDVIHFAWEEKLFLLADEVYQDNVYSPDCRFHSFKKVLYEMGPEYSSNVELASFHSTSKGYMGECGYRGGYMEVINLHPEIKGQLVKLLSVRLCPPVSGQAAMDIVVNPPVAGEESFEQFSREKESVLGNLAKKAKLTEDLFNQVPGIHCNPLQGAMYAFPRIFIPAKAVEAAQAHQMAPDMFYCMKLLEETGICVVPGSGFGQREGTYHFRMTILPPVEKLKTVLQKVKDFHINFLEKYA

Row | SMILES | Potency | outcome | activity change, negative = inhibition
1 | Cc1ccc(-c2cn3cc(C(=O)NC4CCCCCC4)nc3s2)cc1 | inconclusive: 1.41 µM [inhibitor, partial curve, poor fit] | – | –
2 | COc1ccc(NC(=O)Nc2cccc(-c3ccc(N4CCOCC4)nn3)c2)cc1F | – | inactive | –
3 | O=[S+]([O-])(c1ccccc1)N1CC2(COCCN(c3nccc(C(F)(F)F)n3)C2)C1 | inconclusive: 56.2 µM [inhibitor, single point] | – | –
4 | CCc1ccc(C2CC(C(=O)NCc3ccco3)CN(C(C)=O)C2)cc1 (centres undefined) | inconclusive: 2.82 µM [inhibitor, partial curve, poor fit] | – | –
5 | O=C(NC1CCN(c2ccnc3ccnn23)C1)c1ccc2c(c1)OCO2 (centres undefined) | – | – | inactive: 3.12%
6 | CC(=O)N1CCCN(c2ncnc3c2CN(C2CCCC2)C(=O)CN3C)CC1 | – | inactive | –
7 | CCOCCNC(=O)C1CCCN1C(=O)c1cccc(-c2cccc(OC)c2)c1 (centres undefined) | inconclusive: 3.55 µM [inhibitor, full curve, poor fit] | – | –
8 | COc1cccc(CC(=O)N[C@@H]2C[C@H](COc3cccc(C)n3)[C@@H](O)[C@H]2O)c1 | inconclusive: 56.2 µM [inhibitor, single point] | – | –
9 | Cc1ccc(C2=Nc3ccc(Cl)cc3OC2)cc1 | inconclusive: 1.09 µM [inhibitor, full curve, poor fit] | – | –
10 | Cn1cccc1C(=O)N1CC(c2nc(CCOCC3CCCC3)no2)C1 | inconclusive: 39.8 µM [inhibitor, single point] | – | –
11 | CNc1nc(-c2ccc3c(N)n[nH]c3c2)cc(N2CC(C(=O)NC3CCCCC3)CCC2C)n1 (centres undefined) | inconclusive: 22.4 µM [inhibitor, single point] | – | –
12 | Cc1cccc(C)c1OCc1cc(C(=O)N(C)CCCC2CCCC2)no1 | inconclusive: 2 µM [inhibitor, full curve] | – | –
13 | COc1ccccc1-c1cccc(CN2CCCC(C(=O)NC3CC3)C2)c1 (centres undefined) | – | inactive | –
14 | CNC(=O)c1nn(C)c2c1C(C)(C)Cc1cnc(Nc3ccc(N4CCN(C)CC4)cc3)nc1-2 | inconclusive: 43.2 µM [inhibitor, single point] and inconclusive: 22.4 µM [inhibitor, single point] | – | –
15 | O=C(c1ccc(N2CCC(CO)C2)nc1)N1CCC(N2CCOCC2)CC1 (centres undefined) | inconclusive: 12.6 µM [inhibitor, partial curve] | – | –
16 | O=C(CCNc1c(-c2cccc(F)c2)nc2cnccn12)NCc1ccccc1F | inconclusive: 39.8 µM [inhibitor, single point] | – | –
17 | O=C(NCc1cccc(Cl)c1)c1nc2sccn2c1-c1ccc(F)cc1 | – | inactive | –
18 | COCC1CCCCN1C(=O)c1ccc2oc(CCc3ccccc3)nc2c1 (centres undefined) | inconclusive: 31.6 µM [inhibitor, single point] | – | –
19 | CC(C)(C[C@@](O)(Cc1cc2ccncc2[nH]1)C(F)(F)F)c1cc(F)ccc1O | inconclusive: 2 µM [inhibitor, partial curve, poor fit] | – | –
20 | Cc1ccc(/C=N/NC(=O)c2ccccc2Oc2ccccc2)o1 | inconclusive: 19.3 µM [inhibitor, partial curve, poor fit] | – | –

Row | SMILES | Potency | outcome | activity change, negative = inhibition
21 | O=C(N[C@@H]1C[C@H](Cn2cc(C3CC3)nn2)[C@@H](O)[C@H]1O)c1cccnc1 | inconclusive: 56.2 µM [inhibitor, single point] | – | –
22 | Cc1nc(CN2C(=O)OC3(CCN(C(=O)Cc4ccccn4)CC3)C2(C)c2ccccc2)cs1 (centres undefined) | inconclusive: 39.8 µM [inhibitor, single point] | – | –
23 | COCc1ccc2c(c1)c(OC(C)(C)C(=O)NCCN(C)C)nn2Cc1ccccc1 | – | inactive [at 88.5 µM] | –
24 | Cc1ccc(OCc2nc(C3CCCCN3C(=O)C3CC3)no2)cc1 (centres undefined) | – | – | inactive: -8.55%
25 | O=C(Nc1ccccc1)N1CC(c2nc(CCOCC3CC3)no2)C1 | inconclusive: 3.16 µM [inhibitor, partial curve, poor fit] | – | –
26 | O=C1CC2(CCN(C(=O)c3cnc4ccccn4c3=O)C2)C(=O)N1 (centres undefined) | – | inactive | –
27 | COc1cc(-c2ncccc2C(=O)N2CCCC2)cc(OC)c1OC | inconclusive: 3.55 µM [inhibitor, partial curve, poor fit] | – | –
28 | C#CCN(C)C(=O)[C@@H](C)C1CC[C@@]2(C)Cc3sc(NC)nc3[C@@H](C)[C@@H]2[C@H]1O (some centres undefined) | inconclusive: 10 µM [inhibitor, full curve, poor fit] | – | –
29 | COc1ccc(CCC(=O)N2CCC3(CC2)C(OC)CN3c2cccc(F)c2)cc1 (centres undefined) | – | inactive | –
30 | COc1cccc(CNC(=O)C2CCc3nnc(C4CC4)n32)c1 (centres undefined) | – | inactive [at 88.5 µM] | –
31 | CC(C)C1CCC(CO)=CC1/C=C(\CO)C(=O)OCC1(O)CCC(C(C)C)C2C=C(C(=O)O)COC(=O)C21 (centres undefined) | inconclusive: 0.398 µM [inhibitor, full curve, poor fit] | – | –
32 | O=C(O)COc1ccc(-c2nccc3c2C(=O)N(Cc2cccc(C(F)(F)F)c2)CC(COc2ccccc2)O3)cc1 (centres undefined) | inconclusive: 5.01 µM [inhibitor, full curve, poor fit] | – | –
33 | Cc1cc(C(=O)N[C@@H]2CN(Cc3ccccc3)C[C@H]2CO)nn1C | inconclusive: 6.31 µM [inhibitor, single point] | – | –
34 | CN1CC(=O)N(c2ccccc2)Cc2c(NCc3cccc(C(F)(F)F)c3)ncnc21 | inconclusive: 3.55 µM [inhibitor, single point] | – | –
35 | CC1(c2ccccc2)N(Cc2ncccn2)C(=O)OC12CCN(Cc1cccc(OC(F)(F)F)c1)CC2 (centres undefined) | inconclusive: 22.4 µM [inhibitor, partial curve, poor fit] | – | –
36 | COc1cccc(-c2cc(C(=O)N[C@@H](C)c3ncccc3C)[nH]n2)c1 | inconclusive: 4.47 µM [inhibitor, single point] | – | –
37 | Cc1onc(-c2cnn(C)c2NCc2ccc(C#N)cc2)c1C(=O)NC1CCOCC1 | inconclusive: 11.2 µM [inhibitor, single point] | – | –
38 | Cc1cnc(NC(=O)Nc2cc(Br)c(C)cc2OCC2CNCCO2)cn1 (centres undefined) | inconclusive: 3.16 µM [inhibitor, single point] | – | –
39 | COc1cccc(CCC(=O)N2CCC3(CC2)NC(=O)N(c2ccccc2)N3)c1 | inconclusive: 39.8 µM [inhibitor, single point] | – | –
